# Experimental data taken from a collection of fitness landscapes (doi:10.1126/science.1257360).
# The other results are listed elsewhere or left out.
# B1: PhoQ; a variant is named by its letters at X, in order, P23837 (parent)
# chain: MKKLLRLFFPLSLRVRFLLATAAVVLVLSLAYGMVALIGYSVSFDKTTFRLLRGESNLFYTLAKWENNKLHVELPENIDKQSPTMTLIYDENGQLLWAQRDVPWLMKMIQPDWLKSNGFHEIEADVNDTSLLLSGDHSIQQQLQEVREDDDDAEMTHSVAVNVYPATSRMPKLTIVVVDTIPVELKSSYMVWSWFIYVLSANLLLVIPLLWVAAWWSLRPIEALAKEVRELEEHNRELLNPATTRELTSLVRNLNRLLKSERERYDKYRTTLTDLTHSLKTPLXXLQXXLRSLRSEKMSVSDAEPVMLEQISRISQQIGYYLHRASMRGGTLLSRELHPVAPLLDNLTSALNKVYQRKGVNISLDISPEISFVGEQNDFVEVMGNVLDNACKYCLEFVEISARQTDEHLYIVVEDDGPGIPLSKREVIFDRGQRVDTLRPGQGVGLAVAREITEQYEGKIVAGESMLGGARMEVIFGRQHSAPKDE
# Variants of: B1
# Experiment: enrichment ratio after two sorts for PhoP signalling (ratio (wild type AVST 3.29)); higher = more functional
# Settings: with PhoP (E. coli)
row,Variant,enrichment ratio
1,EEFH,≤ 0.25
2,ACFT,≤ 0.25
3,REMN,≤ 0.25
4,NFRN,≤ 0.25
5,FIFA,≤ 0.25
6,PMWI,≤ 0.25
7,GFAV,≤ 0.25
8,IKCV,≤ 0.25
9,GCAI,≤ 0.25
10,YATW,≤ 0.25
11,GNRG,≤ 0.25
12,GKVP,≤ 0.25
13,VTGT,≤ 0.25
14,YAYV,≤ 0.25
15,MSWP,≤ 0.25
16,QASC,4.41
17,TKES,≤ 0.25
18,ARHW,≤ 0.25
19,VLDA,≤ 0.25
20,RSMM,≤ 0.25
21,QKKF,≤ 0.25
22,RLDI,≤ 0.25
23,HQGL,≤ 0.25
24,SDED,≤ 0.25
25,DPCE,≤ 0.25

row,Variant,enrichment ratio
1,RYGY,≤ 0.25
2,MTDG,≤ 0.25
3,QYRM,≤ 0.25
4,HHFL,≤ 0.25
5,KDKP,≤ 0.25
6,VAHP,≤ 0.25
7,DFYT,≤ 0.25
8,MQSI,≤ 0.25
9,KSII,≤ 0.25
10,VDYV,≤ 0.25
11,NSGH,≤ 0.25
12,PWVV,≤ 0.25
13,IGTY,≤ 0.25
14,DGHI,≤ 0.25
15,GVDH,≤ 0.25
16,PLQY,≤ 0.25
17,ANCS,2.95
18,AKFQ,≤ 0.25
19,GKYF,≤ 0.25
20,AHFT,≤ 0.25
21,FMWY,≤ 0.25
22,GGSQ,2.74
23,LISC,≤ 0.25
24,VMWD,≤ 0.25
25,QHDK,≤ 0.25

row,Variant,enrichment ratio
1,LTDW,≤ 0.25
2,QHMS,≤ 0.25
3,SAVM,4.22
4,QCVI,≤ 0.25
5,VRGQ,≤ 0.25
6,PIRI,≤ 0.25
7,IYKE,≤ 0.25
8,FKTM,≤ 0.25
9,RPMW,≤ 0.25
10,PDWR,≤ 0.25
11,YFYH,≤ 0.25
12,AKHN,≤ 0.25
13,PFIE,≤ 0.25
14,DVNR,≤ 0.25
15,RNHG,≤ 0.25
16,HPMQ,≤ 0.25
17,LKLG,≤ 0.25
18,GTKN,≤ 0.25
19,FLQD,≤ 0.25
20,NFWS,≤ 0.25
21,SVIS,0.664
22,GNRS,≤ 0.25
23,DCDP,≤ 0.25
24,RTQA,≤ 0.25
25,YAGM,≤ 0.25

row,Variant,enrichment ratio
1,EMLS,≤ 0.25
2,WKWL,≤ 0.25
3,LCAV,3.29
4,MDTP,≤ 0.25
5,LLFS,≤ 0.25
6,GATH,≤ 0.25
7,DQFY,≤ 0.25
8,SFCV,0.287
9,NLCS,≤ 0.25
10,RHNF,≤ 0.25
11,PALK,≤ 0.25
12,KMNI,≤ 0.25
13,GNFL,≤ 0.25
14,SNYQ,≤ 0.25
15,AALQ,9.54
16,GDGH,≤ 0.25
17,NAMY,≤ 0.25
18,FLGP,≤ 0.25
19,SDGD,≤ 0.25
20,YFRG,≤ 0.25
21,RTVG,≤ 0.25
22,RFEW,≤ 0.25
23,FMNN,≤ 0.25
24,NNRT,≤ 0.25
25,KDWG,≤ 0.25

row,Variant,enrichment ratio
1,CCVR,≤ 0.25
2,FKSC,≤ 0.25
3,ATIP,≤ 0.25
4,KVHS,≤ 0.25
5,HQRM,≤ 0.25
6,PHEQ,≤ 0.25
7,QLGG,≤ 0.25
8,WLCA,≤ 0.25
9,AACT,12.4
10,EFDP,≤ 0.25
11,EQGL,≤ 0.25
12,GSHA,≤ 0.25
13,NTIF,≤ 0.25
14,LMLT,≤ 0.25
15,LTVK,≤ 0.25
16,ESMR,≤ 0.25
17,HYWG,≤ 0.25
18,RQMP,≤ 0.25
19,SYLP,≤ 0.25
20,GLTF,6.67
21,PLCH,≤ 0.25
22,TDCI,≤ 0.25
23,LRPN,≤ 0.25
24,HVVI,≤ 0.25
25,PYII,≤ 0.25

row,Variant,enrichment ratio
1,ANEP,≤ 0.25
2,PHSC,≤ 0.25
3,LHVK,≤ 0.25
4,TYVG,0.756
5,FGPE,≤ 0.25
6,IYAY,2.35
7,IQYQ,≤ 0.25
8,QHWQ,≤ 0.25
9,YGYS,≤ 0.25
10,QNRY,≤ 0.25
11,RYNY,≤ 0.25
12,WTWN,≤ 0.25
13,HPTL,≤ 0.25
14,WEYA,≤ 0.25
15,SRRE,≤ 0.25
16,RVSK,≤ 0.25
17,ETFA,≤ 0.25
18,PWMF,≤ 0.25
19,WNHY,≤ 0.25
20,QPST,≤ 0.25
21,GFTC,≤ 0.25
22,HLHK,≤ 0.25
23,RETD,≤ 0.25
24,FDGF,≤ 0.25
25,YSYV,≤ 0.25

row,Variant,enrichment ratio
1,MSEH,≤ 0.25
2,RHKN,≤ 0.25
3,LNAY,≤ 0.25
4,DSQF,≤ 0.25
5,VYQS,≤ 0.25
6,SHFY,≤ 0.25
7,FMQH,≤ 0.25
8,DKPS,≤ 0.25
9,WSYV,≤ 0.25
10,HDAN,≤ 0.25
11,RYHP,≤ 0.25
12,EGRA,≤ 0.25
13,GPDG,≤ 0.25
14,DLIP,≤ 0.25
15,FGRV,≤ 0.25
16,MAAW,≤ 0.25
17,AKKY,≤ 0.25
18,WHAW,≤ 0.25
19,SHLK,≤ 0.25
20,PSTS,≤ 0.25
21,QYNI,≤ 0.25
22,VEQQ,≤ 0.25
23,LIVQ,≤ 0.25
24,VGND,≤ 0.25
25,YFKM,≤ 0.25

row,Variant,enrichment ratio
1,RYQI,≤ 0.25
2,VYPR,≤ 0.25
3,HWTR,≤ 0.25
4,FPAH,≤ 0.25
5,NLTL,4.17
6,NARQ,≤ 0.25
7,YDGC,2.74
8,TECW,37.6
9,VDSE,≤ 0.25
10,KADN,≤ 0.25
11,FPAI,≤ 0.25
12,KFTV,≤ 0.25
13,KLTY,≤ 0.25
14,ENYS,≤ 0.25
15,EPHE,≤ 0.25
16,DTDL,≤ 0.25
17,WQAR,≤ 0.25
18,NFVE,≤ 0.25
19,KPAY,≤ 0.25
20,SQRE,≤ 0.25
